# Reference: the RNAGym collection of RNA variant scans (doi:10.7554/elife.90254)
# The source gives no read counts; variants with many changes may rest on few reads.
# B1: LINE1-mini (parent)
# chain: GGCAGAGCUCAACACAGCGUGGCAAAGUGGCUGUGGCUAGACUGCC
# Variants of: B1
# Assay: self-cleavage, relative activity (ratio to wild type); higher = more cleavage; in vitro, sequencing; the parent is a self-cleaving ribozyme
row,Variant,self-cleavage
1,U9A A11G G33C C37U G40A,0.02
2,C8U C23G U32A G40C C46U,0.02
3,C8U G27C G36U,0.08
4,C8U A24C U28G C31A,0.11
5,C8U C15G C31U U34G G35U,0.02
6,C8U U9G U43G,0.08
7,C8U G35U C45A,0.13
8,C8U G22U G29U G30C U38A,0.08
9,C8U G19C U28G G33A,0.09
10,U9A A12C A16G,0.01
11,C8U A26C U28G G33C,0.01
12,C8U U9A A26G U34C G40C,0.11
13,C8U C10A A14U A16G A41G,0.02
14,C8U G22A G29A,0.11
15,C8U C10G G17A U20C G21U G29U U43A,0.01
16,C8U C10U G17A C18A G33U,0.03
17,C8U U9A G17A C42A G44C C46G,0.15
18,U9A A12U C13U,0.39
19,U9A A12U A26U,0.04
20,C8U C10U A26G C42A G44U,0.04
21,C8U C13A C37A,0.18
22,C8U C13A C37G,0.06
23,C8U A39U C45U,0.05
24,C8U C15A G36A,0.26

row,Variant,self-cleavage
1,C8U G30U G35A,0.42
2,C8U C18U G33C U43C,0.03
3,C8U G17U C18A G30C,0.23
4,C8U C10U A16G U28G C45G,0
5,C8U G22A A41U U43C,0.25
6,C8U A16U G22C G44A,0.09
7,C8U C15U G21A U38C G44U,0.57
8,C8U C13U G29A C42A,0.3
9,C8U C13G C15A,1.04
10,C8U C10G G33A,0.02
11,C8U A24U G35C,0.12
12,C8U U9A G29C G33U A39C C46U,0.18
13,C8U G29U U34C G36U,0.15
14,C8U C15A U20G,0.14
15,C8U C18A C37G,0.07
16,C8U U28G C37U,0.09
17,C8U G27U G40A,0.33
18,C8U G27U G29A,0.03
19,C8U C31G G35A,0.05
20,C8U A26U G35U,0.05
21,C8U C23U U28C C37U U38A G44U,0.15
22,C8U G44C C46A,0.13
23,C8U C15G A16G U20G,0.05
24,C8U U9G C37U A39C G40U C46A,0.02

row,Variant,self-cleavage
1,U9A A11C C15U C23A C37U,0.01
2,C8U G36C C45U,0.43
3,C8U C13U A24C A25C,0.06
4,U9A A11G C37G,0.03
5,C8U G30A C37A,0.06
6,C8U G21U C37G A39G,0.01
7,C8U C10A A16C C23G G36A G40U U43A,0.01
8,C8U G17A G19A U20C G21U,0.08
9,C8U A25C A39U,0.06
10,C8U C10U G19U G40U C42G,0.05
11,C8U G19A G21C C23G,0.41
12,C8U U9G A12G A16G A24C,0.03
13,U9A A11U G30U,0.02
14,C8U U32G G35U,0.09
15,C8U U20G A24G,0.1
16,C8U C15U G27U G30U A39C A41U,0.16
17,C8U G19U C46U,0.09
18,C8U C10G C13U,0.01
19,C8U C10G G17U A25G,0.03
20,C8U C23A A26U U28G G33U,0.22
21,C8U G17A G19A,0.08
22,C8U C23U A24U U34A C42G,0.17
23,C8U G17C C37A,0.05
24,C8U A16U C23G A24G A26U G27A,0.02

row,Variant,self-cleavage
1,C8U C13A A24G,0.28
2,C8U C15G G17U A26G,0.24
3,C8U C10A G29C C31A U43A C45U,0.02
4,U9A A11C G21C G22C A25G G27U C37G,0.01
5,C8U U28C U32C C42G,0.29
6,C8U U9C G27U,0.07
7,U9A A11C A26U,0.02
8,C8U C10U G22U A39U,0.04
9,C8U G30A G40U C42U,1.44
10,C8U G30U U32A,0.05
11,C8U C10A G33U,0.08
12,C8U C10G G17U G22C C23U G27U,0.02
13,C8U A16U U20C U34C C42U,0.12
14,C8U G40A G44C,0.07
15,C8U G27A G36U,0.11
16,C8U G19C C23U G27U U28G G33A C42U,0.07
17,U9A A11C C31A,0
18,C8U C18A A24G U34A C37A A41C,0.03
19,C8U G36C U43G C46A,0.08
20,C8U C23G C31U,0.17
21,C8U U32A G33A,0.06
22,C8U U9G G21U,0.02
23,C8U A24C U28A,0.09
24,C8U U20C G22C A25U G30A A41C,0.09

row,Variant,self-cleavage
1,C8U C10A G30U C45G,0.02
2,U9A A11U G30U U34A,0.03
3,C8U C13G U32G U38A,0.17
4,C8U A26C U32A,0.31
5,C8U C23G G35A,0.68
6,C8U U9C G21C,0.01
7,U9A A11G G33U C45A,0.02
8,C8U U9G G19A C23G U32A A41U C42A,0.13
9,C8U C31A C37U,0.36
10,U9A A11U G33C,0.02
11,C8U C23A G35U,0.51
12,C8U G21C U34G G36U,0.06
13,C8U G35C C37U,0.06
14,C8U C18U C23G C37G,0.16
15,C8U C10U C15A C46A,0.03
16,C8U A26C G29A C42U,0.05
17,C8U G21A A26U G27U C37A,0.14
18,C8U C18U A25C U34G,0.03
19,C8U C13G C31A U34C,0.08
20,C8U U9C G44C,0.04
21,C8U G21U G30C,0.08
22,C8U U32G G36A A39C,0.03
23,C8U U32A G40A A41G,0.19
24,C8U U20A G30C C31U U32G C37A G44U,0.04

row,Variant,self-cleavage
1,U9A A11U C13U,0.06
2,C8U G21U C23G A25C U32C,0.03
3,C8U U9C U32C,0.05
4,C8U G21A U28C G35C,0.26
5,C8U U9A C10G C15G,0.01
6,C8U C13A C31U,0.23
7,C8U C15A U28G C46U,0.14
8,C8U A25U G30C,1.26
9,C8U C23A C42A,0.22
10,C8U A16U A25C,0.29
11,C8U C18U A24U G27C,0.02
12,U9A A11U G40C,0
13,C8U C37A U43C,0.29
14,C8U U20A G27U U28G G30C,0.12
15,U9A A12C A39C A41C C42U,0
16,C8U G35C G36U C37A G44C C46G,0.31
17,C8U G17A A26U G30U,0.08
18,C8U G19U A24G,0.24
19,C8U C15U C31G,0.18
20,C8U C13A G27A,0.29
21,C8U G21A A24C,1.12
22,C8U C13U C23U,0.11
23,C8U C42U G44U C46G,0.06
24,C8U C18G G40C,0.08

row,Variant,self-cleavage
1,C8U U20C A26C A41C,0.05
2,C8U C15U U20G G30U G35U,0.02
3,C8U G22A G36A G44U,0.09
4,C8U C31G G35A U43A,0.18
5,C8U C15U A16U,0.14
6,C8U G21A G27U A41U,0.41
7,C8U A16U G17C C18G C31G,0.04
8,C8U G27A G44C,0.01
9,C8U C15U G22A G30A,0.3
10,C8U G33U A39G C46A,0.17
11,C8U C31A A41C,0
12,C8U C13G U34G C42G C45A,0.25
13,C8U C18A A25C U32C G35U C45A,0.01
14,C8U C13G C18G,0.04
15,C8U G19U A25U A26U U28A G30A,0.3
16,C8U C10A A11C A12C U20G,0.02
17,C8U G17U C46A,0.03
18,C8U C13U A16C A39U,0.04
19,C8U C10U U32C U43C,0.02
20,C8U C23U A24C U34A,0.05
21,C8U C13U G22C G30A A39G,0.02
22,C8U C15A G36A G40C,0.12
23,C8U G40C C45G,0.06
